# “Also recorded” adds a separate entry of the source. At least one peptide structure holds a part that was inferred or is arguable (an end, a ring closure or a residue). Some compounds share one wording; it may come from a single statement. For at least one compound, name, drawing or mass did not settle the structure. Peptide text beside a SMILES is read from it.
# Biological target: T1, rGOα (recombined Goα protein) (Rattus norvegicus, UniProt P59215)
# T1 construct: made in house; host or cells: E. coli (plasmid pT7-7)
# T1 sequence (P59215 13-354): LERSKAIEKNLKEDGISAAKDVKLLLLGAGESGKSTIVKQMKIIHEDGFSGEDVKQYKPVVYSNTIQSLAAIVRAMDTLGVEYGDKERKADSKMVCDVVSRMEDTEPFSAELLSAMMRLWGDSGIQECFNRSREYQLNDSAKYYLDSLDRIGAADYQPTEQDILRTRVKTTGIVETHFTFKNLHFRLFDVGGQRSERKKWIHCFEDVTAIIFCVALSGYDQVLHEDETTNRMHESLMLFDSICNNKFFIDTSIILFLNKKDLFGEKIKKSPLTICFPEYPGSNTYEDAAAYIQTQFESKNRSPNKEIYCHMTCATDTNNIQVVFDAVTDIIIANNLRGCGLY
# Test: GTPase activity assay: GTP hydrolyzed by rGOα reconstituted into phospholipid blisters
# Type: biochemical
# Conditions: for competition with the stimulator peptides: subsequent experiments; for effect on the GTPase activity of rGOα (capacity to activate the protein rGoα): summary in words; for increase of GTP hydrolysis: 1 mM of peptide (no additional effect beyond this concentration); for activity relative to mastoparan: compared with mastoparan
# Experimental: The activity of the peptides was determined by evaluating the quantity of GTP hydrolyzed in the presence of a recombined Goα protein, using the procedures published by Brandt et al., (1983), Biochemistry, 22, 4357-4362 and by Higashijima et al., (1987), J. Biol. Chem., 262, 757-761.
# The rGOα was produced by the authors of the present invention by expression in E.coli of the cDNA of the α subunit of the Go protein present in the rat's brain, inserted in register in the bacterial plasmid pt7-7 (Tabor et al., 1985, Proc. Natl. Acad. Sci. USA, 82, 1074-1078).
# Compared with natural GOα, rGOα has an N-terminal deletion of 11 amino acids, replaced by another 5 different amino acids because of the cloning strategy adopted. The molecular weight of rGOα is 38.6 Kd.
# When the rGOα is reconstituted into phospholipid blisters (by incubation with a phospholipid mixture at 4° C. for 16 hours), its basal GTPase activity reduces to 0.02 min^-1, This experimental condition which approaches that of the natural protein, in the inactivity state, inserted into the cell membrane was chosen to evaluate the effect of the peptides on the hydrolysis of GTP by rGOα.
# 5 volumes of a solution of rGOα in 50 mM Hepes, pH 8, 1 mM EDTA, 1 mM DTT and 0.02% of Lubrol (HEDL) were mixed with 1 volume of the same buffer containing 0.84% of sodium cholate, 0.05% of dimyristoyl-L-α-phosphatidylcholine, 0.05% of phosphatidylethanolamine from bovine brain and 0.067% of phosphatidyl-serine from bovine brain (as described by Mousli et al., 1990, Immunol. Lett., 25, 355-358) and preincubated at 4° C. overnight.
# An aliquot of 32 μl of this solution was incubated at 20° C. for 5 min in a final volume of 50 μl of HEDL containing 1.1 mM MgCl2 and 0.4 μM (γ^-32 p) GTP (10000-30000 cpm/pmol) and the respective peptide at the final concentrations indicated.
# The reactions were terminated by adding 750 μl of a 5% suspension of vegetable charcoal in 20 mM phosphoric acid. After agitation and centrifuging, 400 μl of supernatant containing the radioactive phosphate were counted by liquid scintillation.
# [1] = stimulation of rGOα GTPase activity
SMILES,"EC50 (stimulation of rGOα GTPase activity, 20° C., 5 min, read-out: concentration giving 50 % of maximum stimulation)",competition with the stimulator peptides,effect on the GTPase activity of rGOα (capacity to activate the protein rGoα),"increase of GTP hydrolysis (20° C., 5 min)",activity relative to mastoparan [1]
"CC[C@H](C)[C@H](N)C(=O)N[C@@H](CC(N)=O)C(=O)N[C@@H](CC(C)C)C(=O)N[C@@H](CCCCN)C(=O)N[C@@H](C)C(=O)N[C@@H](CC(C)C)C(=O)N[C@@H](C)C(=O)N[C@@H](C)C(=O)N[C@@H](CC(C)C)C(=O)N[C@@H](C)C(=O)N[C@@H](CCCCN)C(=O)N[C@@H](CCCCN)C(=O)N[C@H](C(=O)N[C@@H](CC(C)C)C(N)=O)[C@@H](C)CC [Mastoparan, mastoparan]",500 µM,–,–,–,–
CC[C@H](C)[C@H](NC(=O)[C@H](CC(C)C)NC(=O)[C@H](C)NC(=O)[C@H](CCCCN)NC(=O)[C@H](CC(C)C)NC(=O)[C@H](CC(N)=O)NC(=O)[C@H](CC(C)C)NC(=O)[C@H](C)NC(=O)[C@@H](NC(=O)[C@H](CCCCN)NC(=O)[C@@H](N)CC(C)C)[C@@H](C)CC)C(=O)N[C@@H](C)C(=O)N[C@@H](C)C(=O)N[C@@H](CCCCN)C(=O)O [compound 2] (H-LKIALNLKALIAAK-OH),–,compete effectively with the stimulator peptides,inhibit the GTPase activity; also recorded: inhibited,–,–
CC[C@H](C)[C@H](N)C(=O)N[C@@H](CC(N)=O)C(=O)N[C@@H](CC(C)C)C(=O)N[C@@H](C)C(=O)N[C@@H](CCCCN)C(=O)N[C@@H](C)C(=O)N[C@@H](C)C(=O)N[C@@H](CC(C)C)C(=O)N[C@@H](CCCCN)C(=O)N[C@@H](C)C(=O)N[C@@H](CC(C)C)C(=O)N[C@@H](CCCCN)C(=O)N[C@H](C(=O)N[C@@H](CC(C)C)C(=O)O)[C@@H](C)CC [compound 5] (H-INLAKAALKALKIL-OH),–,–,unable to activate rGOα,–,–
CC[C@H](C)[C@H](NC(=O)[C@H](CC(C)C)NC(=O)[C@@H](NC(=O)[C@@H](N)CCCCN)[C@@H](C)CC)C(=O)N[C@@H](CC(N)=O)C(=O)N[C@@H](CC(C)C)C(=O)N[C@@H](CCCCN)C(=O)N[C@@H](C)C(=O)N[C@@H](CC(C)C)C(=O)N[C@@H](C)C(=O)N[C@@H](C)C(=O)N[C@@H](CC(C)C)C(=O)N[C@@H](C)C(=O)N[C@@H](CCCCN)C(=O)O [compound 6] (H-KILINLKALAALAK-OH),–,–,unable to activate rGOα,–,–
CC[C@H](C)[C@H](NC(=O)[C@H](C)NC(=O)[C@H](CC(C)C)NC(=O)[C@H](C)N)C(=O)N[C@@H](CCCCN)C(=O)N[C@@H](CC(C)C)C(=O)N[C@H](C(=O)N[C@@H](CC(C)C)C(=O)N[C@@H](CC(N)=O)C(=O)N[C@@H](CC(C)C)C(=O)N[C@@H](CCCCN)C(=O)N[C@@H](C)C(=O)N[C@@H](CCCCN)C(=O)N[C@@H](C)C(=O)O)[C@@H](C)CC [peptide 1] (H-ALAIKLILNLKAKA-OH),–,compete effectively with the stimulator peptides,inhibit the GTPase activity; also recorded: inhibited,–,–
CC[C@H](C)[C@H](N)C(=O)N[C@@H](CC(N)=O)C(=O)N[C@@H](CC(C)C)C(=O)N[C@@H](C)C(=O)N[C@@H](C)C(=O)N[C@@H](CC(C)C)C(=O)N[C@@H](CCCCN)C(=O)N[C@@H](CCCCN)C(=O)N[C@@H](CC(C)C)C(=O)N[C@@H](C)C(=O)N[C@@H](C)C(=O)N[C@@H](CCCCN)C(=O)N[C@H](C(=O)N[C@@H](CC(C)C)C(=O)O)[C@@H](C)CC [peptide 4] (H-INLAALKKLAAKIL-OH),–,–,considerably improve the GTPase activity; also recorded: stimulate the GTPase activity of rGOα in a manner dependent on the concentration,4 times,activity similar to mastoparan
CC[C@H](C)[C@H](NC(=O)[C@H](C)NC(=O)[C@H](CCCCN)NC(=O)[C@H](CC(C)C)NC(=O)[C@H](CCCCN)NC(=O)[C@H](C)NC(=O)[C@H](CC(N)=O)NC(=O)[C@@H](N)CC(C)C)C(=O)N[C@@H](C)C(=O)N[C@@H](CC(C)C)C(=O)N[C@@H](C)C(=O)N[C@@H](CC(C)C)C(=O)N[C@H](C(=O)N[C@@H](CCCCN)C(=O)O)[C@@H](C)CC [peptide 7] (H-LNAKLKAIALALIK-OH),–,compete effectively with the stimulator peptides,inhibit the GTPase activity; also recorded: inhibited,–,–
CC[C@H](C)[C@H](NC(=O)[C@H](CC(C)C)NC(=O)[C@H](C)NC(=O)[C@H](CCCCN)NC(=O)[C@H](C)NC(=O)[C@H](CC(C)C)NC(=O)[C@H](C)NC(=O)[C@H](CC(C)C)NC(=O)[C@@H](NC(=O)[C@@H](N)CC(N)=O)[C@@H](C)CC)C(=O)N[C@@H](CCCCN)C(=O)N[C@@H](C)C(=O)N[C@@H](CC(C)C)C(=O)N[C@@H](CCCCN)C(=O)O [peptide 8] (H-NILALAKALIKALK-OH),–,–,considerably improve the GTPase activity; also recorded: stimulate the GTPase activity of rGOα in a manner dependent on the concentration,5 times,twice as effective

# Reference: patent US5519116A, “Peptides representing permutations of the mastoparan sequence” (Enichem S.p.A., priority 1991, dated 1996)
